Test results reported in PubChem BioAssay AID1347073 (National Center for Advancing Translational Sciences (NCATS), 2019).
About 200 (0.44%) of roughly 45,000 compounds were called active. About 7% were inconclusive and are not listed. Calls come from the whole dose curve; as a rule, active = well fitted activation curve with a large enough effect; inconclusive = small, poorly fitted or top-dose-only effect; inactive = no such curve, though single readings can be large or run the other way. The list shows a part of the results.

Assay: qHTS of TDP-43 Inhibitors: NCGC Sytravon Library Screen; note: 0% is about no effect; nearly all actives have a fitted effect of over 55% in size
Conditions: yeast TDP-43 toxicity rescue, BacTiter-Glo growth, 24 h; series mostly up to 46.1 µM; growth rescue (activation): at the top concentration
Summary of the method: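 TDP-43-expressing yeast, pregrown in raffinose, seeded at OD600 0.02 in galactose medium with compound for 24 hr at 30 deg C. Growth read by BacTiter-Glo luminescence, so rescue of toxicity appears as activation.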

| SMILES | growth rescue (activation) |
| --- | --- |
| Cc1ccc(CN(CC(=O)NCCc2ccccc2)C(=O)c2csnn2)cc1 | inactive: 10.7% |
| COc1ccccc1NC(=O)CCn1cnc2ccccc2c1=O | inactive: 14.1% |
| Cc1cccc(C)c1NC(=O)C(C)Sc1n[nH]c(-c2ccncc2)n1 (stereo not given) | inactive: 1.04% |
| CC(Oc1ccc(Br)cc1)C(=O)N1CCC(C(N)=O)CC1 (stereo not given) | inactive: 4.04% |
| CCOC(=O)N1CCN(C(=S)Nc2cccc(C)c2C)CC1 | inactive: 16.7% |
| CCOCc1c(C(=O)NC2CCCCCC2)oc2ccccc12 | inactive: 22.4% |
| COC(=O)c1c(SCc2cccc3ccccc23)nc(=O)[nH]c1C | inactive: 21.5% |
| Cc1c(Cc2ccccc2)c(=O)oc2cc(OCC(N)=O)ccc12 | inactive: -12% |
| CCCSc1nnc(N)s1 | inactive: -3.47% |
| COc1ccc(CNc2ccc([N+](=O)[O-])cn2)cc1 | inactive: 8.29% |
| Cc1oc2ccc(OCc3ccc(Cl)cc3)cc2c1C(=O)O | inactive: -5.05% |
| COc1ccccc1CNC(=O)CN1NS(=O)(=O)c2ccccc2C1=O | inactive: -3.7% |
| CN(Cc1ccc(Br)cc1)CC(O)COc1cccc(Br)c1 (stereo not given) | inactive: 4.51% |
| COc1ccc(S(=O)(=O)NCC(=O)N(Cc2ccco2)C(C(=O)NC(C)(C)C)C(C)C)cc1 (stereo not given) | inactive: 8.33% |
| COCCNc1nc2nonc2nc1N1CCCC1c1nccs1 (stereo not given) | inactive: 9.4% |
| CC[n+]1c(/C=C/c2cc([N+](=O)[O-])ccc2O)ccc2ccccc21 | inactive: -10.6% |
| CC(C)N1CCN(Cc2ccc3nsnc3c2)CC1CCO (stereo not given) | inactive: -1.28% |
| CCOc1c(O)ccc(C2NC(=O)N(C)C(C)=C2C(=O)OC)c1[N+](=O)[O-] (stereo not given) | inactive: -13.8% |
| Cc1cc(C(=O)NP(=O)(N2CCOCC2)N2CCOCC2)c(C)n1-c1ccc(Br)cc1 | inactive: -1.81% |
| CN(C(=O)c1ccc2c(=O)n3c(nc2c1)CCCCC3)c1cccc(Cl)c1 | inactive: 6.98% |
| COc1ccc(CC(=O)OCc2cc3ccccc3[nH]c2=O)cc1 | inactive: 12.1% |
| NS(=O)(=O)c1ccc(NC(=O)c2ccc(OCC3CCCO3)cc2)cc1 (stereo not given) | inactive: 12.8% |
| CCN(CC)c1ccc(Nc2cc3n(c(=O)n2)CCc2cc(OC)c(OC)cc2-3)cc1 | inactive: 7.53% |
| CC(=O)N1CCc2cc(NC(=O)C3(C)CCN3Cc3ccccc3OC(F)F)ccc21 (stereo not given) | inactive: 9.52% |

| SMILES | growth rescue (activation) |
| --- | --- |
| CCN(Cc1ccncc1)Cc1cn[nH]c1-c1cc(OC)c(OC)c(OC)c1 | inactive: -3.65% |
| CCc1nc2ccc(C(=O)NCCCn3ccnc3)cn2c1N(C)C(=O)c1cccc(OC)c1 | inactive: 4.31% |
| CC1(C(=O)NS(=O)(=O)c2cccc(F)c2)CCN1C(=O)c1ccccc1 (stereo not given) | inactive: -16.8% |
| O=C(Nn1cnnc1)c1ccc([N+](=O)[O-])cc1 | inactive: 4.23% |
| Cc1cccc(OCC(=O)NC(=S)Nc2ccccc2N2CCOCC2)c1 | inactive: 13.8% |
| Clc1cc(-c2ccc(/C=N/n3cnnc3)o2)ccc1Br | inactive: -1.78% |
| O=C(COc1ccc2c(c1)OCO2)Nc1ccc2c(c1)oc1ccccc12 | inactive: -9.08% |
| O=C(NCCC(F)(F)F)C1Cc2c(-c3ccccc3Oc3ccccc3)ccnc2O1 (stereo not given) | inactive: 24.7% |
| CC(C)(C)C(=O)Cn1c(=O)n(CCCCCC(=O)NCc2ccc3c(c2)OCO3)c(=O)c2sccc21 | inactive: 3.9% |
| Cc1cc(Oc2nc3c(C)cccn3c(=O)c2/C=C(\C#N)S(=O)(=O)c2ccccc2)ccc1Cl | inactive: 6.2% |
| Cc1cc(C)c(OCC(=O)N(Cc2ccc(N(C)C)cc2)C2CCS(=O)(=O)C2)c(C)c1 (stereo not given) | inactive: -14.3% |
| Cc1c(NC(=O)Nc2cccc(C(F)(F)F)c2)c(=O)n(-c2ccccc2)n1C | inactive: 15.4% |
| CSc1ncnc2sc(C)c(C)c12 | inactive: -2.13% |
| Cc1nc2ccc(NC(=S)NCc3ccccc3)cc2nc1C | inactive: 12.3% |
| Cc1ccccc1SCC(=O)NCCCn1ccnc1 | inactive: 5.44% |
| COCCNC(=O)CSc1cc(=O)n(C)c2cc(Cl)ccc12 | inactive: 3.91% |
| CN(C)CCOC(=O)NCC12CC3CC(CC(C3)C1)C2 | inactive: 14.3% |
| COCCN1C[C@@H](CO)O[C@@H](n2cnc3c(NCC(C)C)ncnc32)C1 | inactive: 2.98% |
| CCC(=O)Nc1ccc(NC(=O)/C=C/c2ccc(Cl)cc2)cc1 | inactive: -0.295% |
| CC(Cc1cccs1)NC(=O)c1cccs1 (stereo not given) | inactive: 6.97% |
| CCc1ccc(C(O)c2ncc(-c3ccccc3Cl)[nH]2)cc1 (stereo not given) | inactive: 6.73% |
| CNc1nc(NCCCN2CCCC2=O)c2sccc2n1 | inactive: 17% |
| Cc1ccc(C)c(NC(=S)N2CCC(NC(=O)c3cccc(F)c3)CC2)c1 | inactive: 10.2% |
| Cc1ccc2[nH]c(C)c(CCNC(=O)c3cc4cc([N+](=O)[O-])ccc4oc3=O)c2c1 | inactive: -3.58% |

| SMILES | growth rescue (activation) |
| --- | --- |
| O=C(N/N=C1\CC2CC=CC12)c1ccc(O)cc1 (stereo not given) | inactive: -13.2% |
| S=C(NCc1cccnc1)Nc1cccc2ccccc12 | inactive: 6.82% |
| COc1ccccc1OCc1ccc(C(=O)N2CCCCC2)o1 | inactive: 12% |
| Cc1ccc2oc(-c3cc(NC(=O)c4ncn[nH]4)ccc3O)nc2c1 | inactive: 23.3% |
| Cc1ccc(S(=O)(=O)NCCC(=O)OCC(=O)Nc2ccccc2Cl)cc1 | inactive: 3.55% |
| O=C(CSc1ccc([N+](=O)[O-])cn1)Nc1ccc(N2CCOCC2)cc1 | inactive: 4.15% |
| Cc1cc(C(=O)Cn2ncc(Cl)c(Cl)c2=O)c(C)n1CC(F)(F)F | inactive: -5.78% |
| O=C(COC(=O)Cn1ccc(=O)[nH]c1=O)Nc1ccc(F)cc1 | inactive: 21.9% |
| COc1ccc(C=O)cc1COc1ccccc1F | inactive: 13.9% |
| COc1ccc(CC(=O)OCC(=O)NC2CCCC(C)C2C)cc1 (stereo not given) | inactive: 12% |
| Cc1ccc(CN2CC(C(=O)Nc3nnc(SCc4c(Cl)cccc4Cl)s3)CC2=O)cc1 (stereo not given) | inactive: 1.44% |
| O=C(NCc1cccc(C(F)(F)F)c1)c1ccc2sc([C@@H]3O[C@H](CO)[C@@H](O)[C@H]3O)nc2c1 | inactive: 15.2% |
| Cc1ccccc1-c1cc2nc(NCCN3CCNC3=O)n(C)c(=O)c2s1 | inactive: -11.9% |
| CC1(C(=O)CSc2nc3ccccc3s2)CCC(=O)O1 (stereo not given) | inactive: 18.1% |
| CCOC(=O)c1c(C)[nH]c(C2=NNC(=NC(C)COC)SC2)c1C (stereo not given) | inactive: 12.3% |
| CC1(C(=O)NCc2ccncc2)Cc2c(-c3cccc(C(F)(F)F)c3)ccnc2O1 (stereo not given) | inactive: 14.2% |
| CC(C)c1nnc(NC(=O)c2nc(S(=O)(=O)Cc3ccc(F)cc3)ncc2Cl)s1 | inactive: 11.5% |
| CC(Sc1ccc2ccccc2c1)C(=O)NC(N)=O (stereo not given) | inactive: 12.4% |
| COC(=O)c1ccc(CSc2nc3ccccc3c(=O)n2N)cc1 | inactive: 15.7% |
| O=[N+]([O-])c1cccc(Nc2c3ccccc3nc3ccccc23)c1 | inactive: 24.7% |
| CCCCCCCCCCn1c2c(c(=N)c3c1CCC3)CCC2 | inactive: -88.7% |
| O=C(CC1C(=O)NCCN1Cc1ccc(-c2ccccc2)cc1)NCC1CCOCC1 (stereo not given) | inactive: 10.3% |
